The source of these data is the supplement of paper PMC12355420.

Where “and” joins values, the source holds several entries; their conditions need not be identical. Equal values may be shown once. Where a name gives a salt, the structure may show the parent alone. The list shows a part of the results. Many values rest on one well or one pass, so single values are uncertain.
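Also: primary screen of an FDA-approved drug library in HeLa reporter cells in 96-well format, CellMask signal normalized to DMSO-treated wells set as 1, under 0.5 deemed highly cytotoxic.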

The test has as its system HeLa VPS33A reporter cells. Nature of the test: relative cell viability (CellMask signal) vs DMSO (fraction of DMSO); HeLa model of a glycosaminoglycan (GAG) storage disease; KI is knock-in and KO knock-out; SDC1 is syndecan 1; higher = less cytotoxic. The settings on record: 50 µM; 24 h.
Compound `Cc1cc2c(cc1S(N)(=O)=O)S(=O)(=O)CCC2` [Meticrane] returned a relative cell viability of 1.1.
As to `Cc1nc(NC(=O)N2CCC[C@H]2C(N)=O)sc1-c1ccnc(C(C)(C)C(F)(F)F)c1`, the relative cell viability was 1.23.
To `C[C@@H]1CCN(C(=O)CC#N)C[C@@H]1N(C)c1ncnc2[nH]ccc12` belongs 1.02 and 0.994.
To `NC12CC3CC(CC(C3)C1)C2` [Amantadine] belongs 1.01; to `CC1=Nc2ccc(Cl)cc2S(=O)(=O)N1` [Diazoxide], 1.1.
The compound `CCCC(=O)[O-].[Na+]` [Sodium butyrate] gave a relative cell viability of 1.05.
To `CCN(CC)CCOCCOC(=O)C1(c2ccccc2)CCCC1` [Pentoxyverine Citrate] belongs 0.86; to `CC(=O)Oc1cc2c(s1)CCN(C(C(=O)C1CC1)c1ccccc1F)C2` (stereo not drawn) [Prasugrel hydrochloride], 0.692.
Next, `COC(=O)N[C@H](C(=O)N[C@@H](Cc1ccccc1)[C@@H](O)CN(Cc1ccc(-c2ccccn2)cc1)NC(=O)[C@@H](NC(=O)OC)C(C)(C)C)C(C)(C)C`: 1.1; `CCCCCCCN(CC)CCCC(O)c1ccc(NS(C)(=O)=O)cc1` (stereo not drawn) [Ibutilide Fumarate]: 1.02.
To `CCc1nc(N)nc(N)c1-c1ccc(Cl)cc1` [Pyrimethamine] belongs 0.922.
`CNS(=O)(=O)CCc1ccc2[nH]cc(C3CCN(C)CC3)c2c1` [Naratriptan] yielded a relative cell viability of 1.05.
`C[C@H]1C[C@@H]2[C@H]([C@@H](O)C[C@@]3(C)[C@H]2CC[C@]3(O)C(=O)COC(=O)CCC(=O)O)[C@@]2(C)C=CC(=O)C=C12` [Methylprednisolone Sodium Succinate]: the relative cell viability worked out at 1.1.
